# ± gives the standard deviation of the averaged measurements. Over roughly 33,000 sequences, “E-score (dimensionless, -0.5 to 0.5)” has its median near -0.049; the highest 2% begin near 0.37. This is one part of the list.
# System: T1, PmTbr T-box DNA-binding domain (GST fusion)
# T1 sequence: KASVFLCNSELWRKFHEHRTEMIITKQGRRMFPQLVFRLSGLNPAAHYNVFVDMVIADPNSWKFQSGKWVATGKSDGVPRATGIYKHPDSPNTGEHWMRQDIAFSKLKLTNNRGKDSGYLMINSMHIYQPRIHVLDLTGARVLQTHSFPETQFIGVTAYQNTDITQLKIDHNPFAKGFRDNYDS
# Experiment: PBM E-score of 8-mer (E-score (dimensionless, -0.5 to 0.5)); Tbr is Tbrain of the sea star Patiria miniata (Pm) or the sea urchin Strongylocentrotus purpuratus (Sp); higher = stronger binding preference; most listed sequences are background and not binding sites
# Conditions: the construct has about 5 more residues each side
# Outline: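 Primer extension turned Universal Agilent oligonucleotide arrays double-stranded. They were incubated with 200 nM protein in PBS (pH 7.5); the protein was a GST-fused Tbr T-box DNA-binding domain expressed in BL21 E. coli at 20 °C and purified on glutathione. Every ungapped 8-mer was scored from the scanned, quantified probe intensities, and the Universal PBM Analysis Suite gave each an enrichment E-score averaged over duplicate arrays.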
row,Sequence,PBM E-score of 8-mer
1,GGCCACCC,-0.101 ± 0.023
2,AGTGCACT,-0.103 ± 0.027
3,AGGCTGCA,0.0452 ± 0.014
4,ACTGAACT,-0.181 ± 0.011
5,GACCTATA,-0.179 ± 0.08
6,GGACAGCC,-0.127 ± 0.07
7,GGCCGACA,0.0775 ± 0.14
8,CGCAGCCC,-0.183 ± 0.0047
9,AACCCTCA,-0.0541 ± 0.0098
10,GCGCTAGC,0.176 ± 0.039
11,AGCGGCCG,0.00312 ± 0.042
12,CGGCTTCC,-0.0412 ± 0.097
13,ATCAATCA,0.138 ± 0.08
14,CGGCTGAA,-0.209 ± 0.054
15,CACATTGG,0.281 ± 0.053
16,GCAAGACC,-0.115 ± 0.076
17,CCTTCGGC,-0.0428 ± 0.025
18,ATCTGGAG,-0.0671 ± 0.11
19,TAGGTTGA,0.00575 ± 0.0052
20,CCGTGTGC,-0.0298 ± 0.043
21,ACTAGTGG,0.0669 ± 0.0084
22,AGTCTGTC,-0.151 ± 0.028
23,AGAGACGG,-0.15 ± 0.096
24,ATAGCAAC,0.165 ± 0.0021
25,AAGAGGGA,-0.114 ± 0.042

row,Sequence,PBM E-score of 8-mer
1,CGACGCAA,0.0226 ± 0.043
2,TCGCCGCA,-0.0222 ± 0.026
3,TAATACCA,-0.108 ± 0.022
4,AGCGTCGG,-0.0569 ± 0.081
5,ACAGAGAG,-0.0916 ± 0.12
6,AACTTCTA,-0.207 ± 0.031
7,CCAGTTTA,-0.0969 ± 0.018
8,ACGAGACC,-0.024 ± 0.015
9,CGCAGGCG,0.311 ± 0.013
10,AGCGATAG,0.0622 ± 0.041
11,CCATGTTA,-0.052 ± 0.064
12,CCTCGTAA,-0.143 ± 0.069
13,TAGGCGAA,-0.00988 ± 0.019
14,AGGACCTA,-0.182 ± 0.032
15,AACAACGA,0.012 ± 0.057
16,CAGGGCGG,-0.113 ± 0.029
17,AATGACAA,0.102 ± 0.06
18,GCGGTCAC,0.116 ± 0.087
19,AGGTCACA,0.27 ± 0.017
20,AACCGCTA,0.137 ± 0.0032
21,CGTCAAAC,0.113 ± 0.0074
22,ATCAATAA,-0.279 ± 0.033
23,AAGTCGAA,-0.24868 ± 0.00016
24,CGCTGCGC,0.0144 ± 0.018
25,CTTTGAAA,-0.236 ± 0.015

row,Sequence,PBM E-score of 8-mer
1,TCAGTCCA,-0.136 ± 0.021
2,GCTGTCCA,-0.0682 ± 0.095
3,AAGCTAGT,0.0346 ± 0.029
4,AACCAATT,-0.0573 ± 0.049
5,CCAGTTCC,-0.143 ± 0.0064
6,TATAGCCA,-0.0771 ± 0.047
7,CGGCGGCA,0.0897 ± 0.064
8,CGGCAGTC,-0.129 ± 0.048
9,ATCTCGCC,0.206 ± 0.017
10,TCCGGCCA,-0.143 ± 0.04
11,ATACGTTG,-0.0321 ± 0.038
12,CGCATCAC,0.187 ± 0.046
13,CATGTCGA,-0.062 ± 0.00094
14,TAATTTGA,-0.128 ± 0.074
15,AAAGATCT,-0.0992 ± 0.087
16,TACTTATA,0.0474 ± 0.074
17,AAACCTTT,-0.143 ± 0.0017
18,ACGCTTCT,0.106 ± 0.035
19,CCCGTACA,-0.0694 ± 0.029
20,GATAGCTA,-0.0637 ± 0.074
21,CGACTGAC,0.0283 ± 0.029
22,CAAATATC,-0.0117 ± 0.1
23,GTACCAGA,-0.182 ± 0.033
24,TGGTTTAA,-0.115 ± 0.037
25,ATCTCGTG,-0.0464 ± 0.013

row,Sequence,PBM E-score of 8-mer
1,ATTCCCCC,-0.328 ± 0.037
2,ATCACTCC,0.0223 ± 0.059
3,ATACGCAG,0.073 ± 0.021
4,CACGCCCC,0.193 ± 0.057
5,GAGCTGGA,-0.0185 ± 0.037
6,GCCAACAC,0.354 ± 0.0042
7,GTGCAGTA,-0.113 ± 0.051
8,CAATCTTC,0.0211 ± 0.036
9,AACGACCG,-0.118 ± 0.043
10,AGATAGCG,0.151 ± 0.059
11,AGTAAATA,-0.177 ± 0.015
12,ATCTCTGC,-0.109 ± 0.0094
13,CGACGCTC,0.0138 ± 0.043
14,GTTTGCAA,0.125 ± 0.04
15,AGGTTGTC,0.074 ± 0.065
16,CTGGGCCC,-0.364 ± 0.02
17,CTACGAGC,-0.287 ± 0.073
18,CCTAGTCG,0.156 ± 0.019
19,ATATTTTC,-0.17 ± 0.031
20,AAGGCCTC,-0.105 ± 0.015
21,ACGCTGTC,0.0556 ± 0.0024
22,CTGCACAC,0.215 ± 0.027
23,ACTCAAGA,-0.0123 ± 0.0034
24,CGATTCGA,0.0278 ± 0.056
25,CCGCGCAA,0.00579 ± 0.065

row,Sequence,PBM E-score of 8-mer
1,ACACTAGT,0.264 ± 0.025
2,AATGCCCC,-0.365 ± 0.05
3,AACCTGTG,0.19 ± 0.043
4,AATTGGGA,-0.0137 ± 0.033
5,TAACGCTA,0.205 ± 0.037
6,ATGGCTTG,-0.216 ± 0.086
7,ATTTACTG,-0.144 ± 0.038
8,AACAATGT,0.0817 ± 0.041
9,CACTCTGG,0.0472 ± 0.035
10,AGCCAATA,-0.262 ± 0.041
11,GAGAAGGC,0.106 ± 0.026
12,AAATAGTC,-0.154 ± 0.016
13,CACTCCCC,-0.022 ± 0.029
14,CCATGGGG,-0.267 ± 0.028
15,GGAATCTA,-0.145 ± 0.004
16,CGAGGTGA,0.4396 ± 0.0012
17,GACCGCCA,-0.0701 ± 0.085
18,AACTTGGG,0.0209 ± 0.019
19,CGTGAGTA,0.136 ± 0.02
20,AAGCTCGC,0.0764 ± 0.07
21,CACCACCC,0.163 ± 0.023
22,ATGATCTC,-0.1239 ± 0.00029
23,CAACCGCA,-0.192 ± 0.082
24,CGTACTTA,-0.115 ± 0.042
25,AGCGCTGG,0.0172 ± 0.042

row,Sequence,PBM E-score of 8-mer
1,AACTTCCA,-0.053 ± 0.039
2,AATCCATT,-0.291 ± 0.033
3,AGGCCGAT,-0.0621 ± 0.043
4,GATGCAGC,-0.297 ± 0.019
5,ATACATCC,0.0559 ± 0.062
6,CAATTTCC,-0.102 ± 0.0074
7,CAACTAGG,-0.0699 ± 0.0064
8,CTCCCTGA,-0.168 ± 0.0082
9,AAGCTAAC,-0.0267 ± 0.025
10,ATATTGAG,-0.113 ± 0.079
11,CCGTCTTC,-0.124 ± 0.0066
12,AATTGCCT,-0.299 ± 0.034
13,AGACCCAT,-0.144 ± 0.12
14,ACGGAGAA,0.00365 ± 0.064
15,CACCAAAG,0.172 ± 0.033
16,CTACCTGA,0.00758 ± 0.012
17,ATGAACCC,-0.139 ± 0.029
18,CGGGAGCA,0.0899 ± 0.006
19,CACTTTGC,0.319 ± 0.028
20,GGTGCAGA,0.168 ± 0.019
21,GCAGCAAC,-0.037 ± 0.022
22,TATGTCCA,-0.147 ± 0.024
23,GAGGGGGC,-0.142 ± 0.027
24,ATACGCCC,-0.0628 ± 0.0086
25,CATTACTA,-0.156 ± 0.041

row,Sequence,PBM E-score of 8-mer
1,AGGTTCTA,-0.161 ± 0.044
2,ATCCACGA,-0.238 ± 0.0079
3,CAAGCAGC,-0.0145 ± 0.0015
4,ATGTTCAG,-0.0702 ± 0.026
5,ACAAGAGT,-0.151 ± 0.0067
6,ATAAGAAG,-0.138 ± 0.045
7,CACTGTAA,0.161 ± 0.0026
8,CTGACACA,0.344 ± 0.013
9,AGCAACAG,0.0636 ± 0.029
10,CGCGTCTA,0.0754 ± 0.046
11,GCTCCGGA,-0.18 ± 0.088
12,ACGGTCTA,-0.195 ± 0.054
13,TGCTTACA,-0.0251 ± 0.086
14,ACGTATTG,-0.0903 ± 0.011
15,GCACGGAC,-0.0346 ± 0.022
16,AGACCCCA,-0.236 ± 0.0066
17,ACCGGAGG,0.000975 ± 0.038
18,ACGGATCG,-0.104 ± 0.011
19,ATGAGACG,-0.0507 ± 0.02
20,TGAGCCCA,-0.159 ± 0.019
21,ACAGAGGA,-0.106 ± 0.13
22,AGGATCGG,-0.169 ± 0.079

# Source: the supplement of paper PMC4166925
